Paper PMC9897667, “Identification of procathepsin L (pCTS-L)–neutralizing monoclonal antibodies to treat potentially lethal sepsis” (Science Advances, 2023)

Biological target: T1, recombinant human procathepsin L (pCTS-L) (human, UniProt P07711 18-333)
T1 construct: procathepsin L (pCTS-L), human, recombinant; A HEK293-made pCTS-L is named only for stimulating PBMCs; also called proCTS-L; human pCTS-L; source: recombinant, highly purified
T1 sequence (looked up): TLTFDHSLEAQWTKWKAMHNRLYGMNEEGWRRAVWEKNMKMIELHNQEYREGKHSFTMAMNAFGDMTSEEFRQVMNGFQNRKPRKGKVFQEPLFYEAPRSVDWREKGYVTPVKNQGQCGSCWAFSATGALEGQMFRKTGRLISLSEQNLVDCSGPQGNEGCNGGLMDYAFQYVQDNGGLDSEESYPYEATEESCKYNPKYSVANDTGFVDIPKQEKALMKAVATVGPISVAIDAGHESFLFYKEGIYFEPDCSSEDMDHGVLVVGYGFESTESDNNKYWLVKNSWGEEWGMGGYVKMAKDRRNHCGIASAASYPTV
Experiment: SPR; OpenSPR, series of Fig. 10A; pCTS-L immobilised on NTA sensor chip and preincubated with the anti-pCTS-L mAb20 before TLR4 or RAGE was applied at various concentrations
Conditions: both partners purified

B1: extracellular domain of human RAGE ([…]) (receptor)
chain: not shown
notes: signal peptide in the construct; receptor for advanced glycation end products, human, extracellular domain, […]; also called receptor for advanced glycation end products; recombinant RAGE; source: bought: Sino Biological Inc
B1 was tested, and the “KD with mAb20 preincubated on pCTS-L” value was 30.4 ± 9.8 nM.
